According to the supplement of paper PMC10338343:
± gives the standard deviation. The entries are a selection whose mix differs from that of the whole data set.

Test system: MIWI (PIWIL1) piRISC loaded with L1MC piRNA (30 nt)
Experiment: pre-steady-state target cleavage rate (min^-1); MIWI and MILI are mouse PIWI proteins and EfPiwi is from a freshwater sponge; tags in brackets are library labels; higher = faster piRNA-guided slicing of the target
Details: guide: L1MC piRNA 5'p-UAACUAAAUACUAUGCAAGCUGUAGGUCCU; auxiliary factor: 500 nM mouse GTSF1
Outline: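 The method was Cleave-'n-Seq, in which uncleaved targets from a transcribed, DNA-blocked target RNA library were sequenced after exposure to active affinity-purified piRISC carrying one synthetic guide, with or without GTSF1 partner protein. Reactions contained 0.1 nM library, 1 nM piRISC and, where present, 500 nM GTSF1 in HEPES–potassium acetate buffer at 33 °C for 0–8 or 0–960 min. Reads were normalised to depth and to weakly complementary targets, three trials were pooled, and k3 was capped at 0.0001 min^-1. The pre-steady-state cleavage rate came from a burst-and-steady-state fit.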

| Sequence | pre-steady-state target cleavage rate |
| --- | --- |
| UGGACCUACAGCUUCCAUAGUAUUUAGUUA | 0.0563 ± 0.013 |
| AGGACCUACAGCUUGCAUAGUAUUUAGCUUA | 0.476 ± 0.078 |
| AGGACCUACACGAUGCAUAGUAUUUAGUAA | 0.668 ± 0.047 |
| UCCUGGAUCAGCUGUGCAUAGUAUUUAGUUA | 0.847 ± 0.046 |
| UGGACCUACAGGCUUGCAUAGUAUUUAGUUA | 1.22 ± 0.093 |
| UCGACCUACAGCUUGGAUAGUAUUUAGAAA | 0.372 ± 0.044 |
| UCCUGCUACAGGAUGCAUAGUAUUUAGUUA | 1.02 ± 0.067 |
| UGGAGCUACAGCUUGGAUAGUAUUUAGUUA | 1.11 ± 0.083 |
| UCGACCUACUCCUUGCAUAGUAUUUAGAAA | 0.265 ± 0.039 |
| AGGAGCUACAGCUUGCAUAGUAUUAAGUUA | 0.783 ± 0.065 |
| UCGACCUACAGCUAGGAUAGUAUUUAGUUA | 1.29 ± 0.064 |
| UCCUCCUAGAGCUUGCAAAGUAUUUAGUUA | 0.829 ± 0.049 |
| AGGACCUACAGCAUGCAUAGUAUUUAGAAA | 0.577 ± 0.059 |
| UGGACCUACACCUUGCAUAGUAAUUAGUUA | 0.607 ± 0.057 |
| UCCACCUACAGCUUGCAUAGAAUUUACUUA | 0.276 ± 0.042 |
| UCCACCUACAGCUAGCAUAGUUUUUAGUUA | 0.274 ± 0.021 |
| UGGUCCUACAGCUUGCAUUGUAUUUAGUUA | 0.778 ± 0.022 |
| UCCUCCUACAGCUUGCAUAGUAUAUAGAUA | 0.197 ± 0.031 |
| UCCUGGAACAGCUUGCAUAGCAUUUAGUUA | 0.328 ± 0.031 |
| UCCUGGAUGUGCUUGCAUAGUAAUUUAGUUA | 0.00787 ± 0.004 |
| UCCUGGAUGAGCUUGCAUAGUAUUUACGUUA | 0.515 ± 0.056 |
| UCCUGCUAGAGCUUGCAUUGUAUUUAGUUA | 0.62 ± 0.044 |
| UCCACCUACUGCAUGCAUAGUAUUUAGUUA | 0.993 ± 0.029 |
| UCCUGGUAAGCUUGCAUAGUAUUUAGUUA | 0.979 ± 0.043 |
